In PubChem BioAssay AID1768 (National Center for Advancing Translational Sciences (NCATS), 2009):
The campaign covered roughly 270,000 compounds. About 620 (0.23%) were called active. Inconclusive results, whose numbers are uncertain, are shown with a selection of clear calls. Calls come from the whole dose curve; as a rule, active = well fitted inhibition curve with a large enough effect in the polarisation, with a control signal flat (not every such curve was filed as active); inconclusive = small, poorly fitted or top-dose-only effect, or effect the other way, or a change in a side signal; inactive = no such curve, though single readings can be large or run the other way; the % refers to the polarisation. Potencies beside an inconclusive call are fits to weak or partial responses and may not hold up. A note “side channel” means that the fit belongs to a control or component signal, not to the main read-out.
Potency is the fitted concentration of half-maximal effect; tags give direction and shape of the fitted curve or compound fluorescence and quenching.
Throughout, for FP activity change, negative = inhibition: % of control where 0% means no effect.

These compounds were tested against Menin (Homo sapiens) (UniProt O00255) (assay: qHTS Assay for Inhibitors Targeting the Menin-MLL Interaction in MLL Related Leukemias: Competition With Texas Red Labeled MLL-derived Mutant Peptide). Conditions: fluorescence polarization; FP activity change, negative = inhibition: at 61.6 µM (top of the series).
Chain of UniProt O00255 (O00255 whole entry, looked up): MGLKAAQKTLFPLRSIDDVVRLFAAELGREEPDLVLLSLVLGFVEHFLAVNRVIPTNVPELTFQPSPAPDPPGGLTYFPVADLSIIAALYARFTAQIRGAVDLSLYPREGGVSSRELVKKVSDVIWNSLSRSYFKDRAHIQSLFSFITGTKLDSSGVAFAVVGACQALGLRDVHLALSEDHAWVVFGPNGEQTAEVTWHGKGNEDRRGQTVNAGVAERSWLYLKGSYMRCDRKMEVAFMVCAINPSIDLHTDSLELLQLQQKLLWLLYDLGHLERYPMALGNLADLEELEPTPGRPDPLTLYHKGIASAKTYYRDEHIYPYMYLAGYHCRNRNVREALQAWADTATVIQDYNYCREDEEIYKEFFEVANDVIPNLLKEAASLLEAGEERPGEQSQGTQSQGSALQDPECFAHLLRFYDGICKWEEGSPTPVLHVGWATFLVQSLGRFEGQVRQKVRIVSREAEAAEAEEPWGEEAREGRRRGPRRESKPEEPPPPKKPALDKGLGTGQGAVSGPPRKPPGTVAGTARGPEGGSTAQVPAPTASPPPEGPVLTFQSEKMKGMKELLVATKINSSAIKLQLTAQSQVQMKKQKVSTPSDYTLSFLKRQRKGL
With `O=C(NCCC1=CCCCC1)C1CCCN(S(=O)(=O)c2ccc(F)cc2)C1` (stereo not drawn) the Potency was inconclusive: 39.8 µM [fluorescent, side channel, single point]. `C/C(=N\N=C(/N)SC1CC(=O)N(c2ccc(Cl)cc2)C1=O)c1cccs1` (stereo not drawn) was tested, and the Potency was inconclusive: 17.8 µM [quencher, partial curve]. For `O=C(NC(=S)Nc1cccc2c(O)cccc12)c1ccccc1[N+](=O)[O-]`, the Potency was inconclusive: 25.1 µM [quencher, side channel, partial curve]. `O=[N+]([O-])c1ccc(COc2ccc(Br)cc2CN2CCOCC2)cc1` was tested, and the “FP activity change, negative = inhibition” value was inactive: -2.63%. In the case of `OC(COc1ccc(F)cc1)CN1CCN(CC(O)COc2ccc(F)cc2)CC1` (stereo not drawn), the “FP activity change, negative = inhibition” value is reported as inactive: -16.5%. For `Cc1nc2c(sc(=S)n2Cc2ccco2)c(=O)n1CC(=O)Nc1ccccc1Cl`, the Potency was inconclusive: 3.55 µM [quencher, side channel, partial curve]. In the case of `Cc1ccc(C(C(=O)NC2CCCC2)N(C(=O)Cc2cccs2)c2cccc(C)c2C)o1` (stereo not drawn), the Potency is reported as inconclusive: 10 µM [inhibitor, partial curve]. `O=C(Cc1ccccc1)Nc1ccc(NC(=O)Cc2ccccc2)c(Cl)c1` was tested, and the Potency was inconclusive: 20 µM [inhibitor, partial curve]. With `Cc1ccc(OCc2nnc(SCC(=O)CC(=O)Nc3ccccc3)o2)cc1` the Potency was inconclusive: 15.8 µM [quencher, side channel, partial curve]. For `C=CCOc1ccccc1CN(C(=O)CCl)c1ccc2c(c1)OCO2`, the Potency was inconclusive: 2.24 µM [fluorescent, side channel, partial curve]. `O=[N+]([O-])c1ccc(O)c(/C=N/Nc2ccccn2)c1` was tested, and the Potency was inconclusive: 25.1 µM [quencher, side channel, partial curve]. For `O=C(Nc1cccc(Br)c1)c1ccn[nH]1`, the Potency was inconclusive: 35.5 µM [quencher, side channel, single point]. With `CCn1c(=O)c2sccc2n(CC(=O)NC2CCCCC2)c1=O` the Potency was inconclusive: 17.8 µM [inhibitor, partial curve]. In the case of `O=C(CN1C(=O)CCC1=O)Nc1nc(-c2ccc3ccccc3c2)cs1`, the Potency is reported as inconclusive: 11.2 µM [quencher, side channel, partial curve]. With `O=C(c1cnn(-c2ccccc2)c1-n1cccc1)N1CCN(C2CCCCC2)CC1` the Potency was inconclusive: 22.4 µM [inhibitor, partial curve, poor fit]. For `COc1ccc(C(=O)NN(C)c2nc(-c3ccccc3)nnc2C(F)(F)F)cc1`, the Potency was inconclusive: 0.891 µM [quencher, side channel, full curve, poor fit]. `COc1ccc(CCNCc2c(-c3ccccc3)n(C)c3ccccc23)cc1` was tested, and the Potency was inconclusive: 10 µM [fluorescent, side channel, partial curve]. With `CCCCOc1ccc(/C=C/C(=O)OCC(=O)c2c(N)n(C)c(=O)n(C)c2=O)cc1OCC` the Potency was inconclusive: 7.94 µM [quencher, side channel, full curve, poor fit]. `CCOc1ccc(Cc2nccc3cc(OCC)c(OCC)cc23)cc1OCC` was tested, and the Potency was inconclusive: 2.82 µM [inhibitor, full curve]. `CCCCn1nnnc1NCc1ccc(C)cc1` was tested, and the Potency was inconclusive: 17.8 µM [inhibitor, partial curve]. `CC(=O)Nc1nc2ccccc2n1Cc1ccc(C)cc1` was tested, and the Potency was inconclusive: 11.2 µM [inhibitor, partial curve]. With `CC(Oc1ccc(Cl)cc1Cl)C(=O)NCCC1=CCCCC1` (stereo not drawn) the Potency was inconclusive: 22.4 µM [fluorescent, side channel, partial curve]. In the case of `CCCCOc1ccc(C(=O)Nc2ccc3c(c2)OCO3)cc1`, the Potency is reported as inconclusive: 39.8 µM [fluorescent, side channel, single point]. With `O=C(Nc1ccccc1)C1=C[C@H](c2ccc(Br)cc2)C[C@H](OCc2ccc(CO)cc2)O1` the Potency was inconclusive: 20 µM [quencher, side channel, single point]. `COc1cccc(Nc2nc(N)nc(-c3oc4ccccc4c3C)n2)c1` was tested, and the Potency was inconclusive: 3.55 µM [quencher, side channel, full curve]. With `CCC(Sc1nnnn1-c1ccccc1)C(=O)NC(C)c1ccccc1` (stereo not drawn) the Potency was inconclusive: 12.6 µM [inhibitor, partial curve]. `Cc1ccc2c(c1)C1CN(C)CCC1N2C(=O)c1ccc(Cl)c(S(=O)(=O)N2CCOCC2)c1` (stereo not drawn) was tested, and the Potency was inconclusive: 28.2 µM [inhibitor, single point]. In the case of `c1ccc(C2CC(c3ccccc3)C(c3ccccc3)N2)cc1` (stereo not drawn), the Potency is reported as inconclusive: 17.8 µM [fluorescent, side channel, partial curve]. With `COc1ccc(-c2nnc(-c3cc(OC)c(OC)c(OC)c3)o2)cc1OC` the Potency was inconclusive: 31.6 µM [inhibitor, single point]. With `CSc1ccc(/C=C2\CCn3c2nc2cc(C(=O)O)ccc2c3=O)cc1` the Potency was inconclusive: 3.16 µM [inhibitor, partial curve]. For `COc1ccc(/C=C/C(=O)c2c(O)cc(C)oc2=O)c(OC)c1`, the Potency was inconclusive: 31.6 µM [quencher, side channel, single point]. With `COC(=O)C1=C(C)N(Cc2ccccc2)C(=NCC2CC2)N[C@H]1c1ccc(Br)cc1` the Potency was inconclusive: 39.8 µM [inhibitor, single point]. `O=C(N/N=C/c1ccc(Br)s1)c1cccnc1` was tested, and the Potency was inconclusive: 39.8 µM [inhibitor, single point]. `COc1cccc(/C=N/NC(=O)CNC(=O)c2ccncc2)c1O` was tested, and the Potency was inconclusive: 5.01 µM [quencher, side channel, full curve, poor fit]. With `COc1ccc(C(=O)NCC(=O)N/N=C/c2cccc(OC(=O)c3ccco3)c2)cc1OC` the “FP activity change, negative = inhibition” value was inactive: -3.99%. In the case of `O=C(CNC1CCCCC1)NN=C(c1ccccc1)c1ccccc1`, the Potency is reported as inconclusive: 7.94 µM [fluorescent, side channel, full curve, poor fit]. `CCOC(=O)c1c(CSc2ccc(CC)cc2)oc2ccc(O)c(CN(C)C)c12` was tested, and the Potency was inconclusive: 2.24 µM [fluorescent, side channel, full curve]. For `O=S(=O)(/N=C(/Nc1cccc2ccccc12)c1ccccc1)c1cccs1`, the Potency was inconclusive: 7.08 µM [inhibitor, single point]. With `CCCNC(=O)/C(C#N)=C1\N=C(NC(=O)c2cccs2)c2ccccc21` the Potency was inconclusive: 2.51 µM [quencher, side channel, partial curve]. With `Cc1ccccc1S(=O)(=O)Oc1ccc2ccc(O)cc2c1` the Potency was inconclusive: 17.8 µM [quencher, side channel, partial curve]. In the case of `COc1cccc(C(=O)NCC2(c3ccccc3)CCCC2)c1OC`, the Potency is reported as inconclusive: 15.8 µM [fluorescent, side channel, partial curve]. With `Cc1cc(NC(=O)COC(=O)CCS(=O)(=O)c2cc(Cl)ccc2Cl)no1` the Potency was inconclusive: 8.91 µM [quencher, side channel, single point]. For `Cc1ccc(C)c(-c2ccc(=O)n(Cc3ccc(F)cc3Cl)n2)c1`, the Potency was inconclusive: 11.2 µM [fluorescent, side channel, partial curve]. In the case of `COc1cc(OC)c(C(=O)N2CCCC2)cc1OC`, the Potency is reported as inconclusive: 11.2 µM [fluorescent, side channel, partial curve]. In the case of `CN(CCO)c1ccc(/C=N/Nc2nncc3ccccc23)cc1`, the Potency is reported as inconclusive: 31.6 µM [quencher, side channel, single point]. `COc1ccc(/C=N/Nc2nc(Nc3ccccc3)nc(N3CCCCC3)n2)c(OC)c1` was tested, and the Potency was inconclusive: 8.91 µM [quencher, side channel, full curve, poor fit]. With `O=C(N/N=C1\CCSC1)c1cc(Cl)ccc1O` the Potency was inconclusive: 28.2 µM [quencher, side channel, single point]. `CC1CN(CC(O)COC(c2ccc(Cl)cc2)c2ccc(Cl)cc2)CC(C)O1` (stereo not drawn) was tested, and the Potency was inconclusive: 39.8 µM [fluorescent, side channel, single point]. For `COc1ccc(OC)c(NC(=O)C2CC(/C=C/c3ccccc3)=NO2)c1` (stereo not drawn), the Potency was inconclusive: 25.1 µM [fluorescent, side channel, single point]. For `CCOC(=O)c1ccccc1NC(=O)c1ccc2c(SCC(=O)O)c3c(nc2c1)CCCC3`, the “FP activity change, negative = inhibition” value was inactive: 59.2%. For `O=C(N/N=C/c1ccccn1)c1cc(C2CC2)[nH]n1`, the “FP activity change, negative = inhibition” value was inactive: 6.23%. For `O=c1c2[nH]c3ccccc3c2ncn1Cc1ccncc1`, the “FP activity change, negative = inhibition” value was inactive: -4.98%. In the case of `OCC1OC([S-])[C@H](O)C(O)C1O.[Au+]` (stereo partly drawn), the “FP activity change, negative = inhibition” value is reported as inactive: 5.4%. In the case of `COC(=O)c1cc2occc2n1Cc1nc(-c2ccccc2C)oc1C`, the Potency is reported as inconclusive: 28.2 µM [fluorescent, side channel, single point]. For `COc1ccc(Cl)cc1NC(=O)c1nnn(CC(=O)Nc2cc(C)cc(C)c2)c1N`, the Potency was inconclusive: 35.5 µM [inhibitor, single point]. For `CC(=O)Nc1ccc(Nc2nc(-c3sc(NC(C)=O)nc3C)cs2)cc1`, the Potency was inconclusive: 17.8 µM [quencher, side channel, partial curve]. With `O=C(Nc1ccc(O)cc1C(=O)O)c1ccc2c(c1)C(=O)N(Cc1ccco1)C2=O` the Potency was inconclusive: 14.1 µM [quencher, side channel, partial curve]. For `CCn1c(C)c(/C=N/Nc2nc3ccccc3s2)c2ccccc21`, the Potency was inconclusive: 3.98 µM [quencher, side channel, full curve].
